The whole screen tested about 73,000 compounds, of which about 1,800 (2.5%) were called active. The shares of active, inactive and inconclusive entries below differ from those in the screen. Calls come from the whole dose curve; as a rule, active = well fitted activation curve with a large enough effect; inconclusive = small, poorly fitted or top-dose-only effect; inactive = no such curve, though single readings can be large or run the other way. No potency is given beside an inconclusive call; the fits are too rough.
Experiment: qHTS Assay for Agonists of the Thyroid Stimulating Hormone Receptor: Activators of Intracellular cAMP Concentrations in Parental HEK 293; note: nearly all actives have a fitted effect of over 55% in size; for activation: % of control where 0% means no effect
Settings: parental HEK293 CNG cAMP sensor, membrane potential fluorescence; activation: at 57.1 µM (top of the series) unless noted
Method in brief: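 Parental HEK 293 cells stably expressing a modified CNG channel (no TSHR) report cAMP rise as membrane depolarization. Membrane potential dye with 100 uM RO 20-1724 was loaded for 60 min at room temperature, then compound added for 30 min; fluorescence read at 590 nm.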
Potency is the fitted concentration of half-maximal effect; tags give direction and shape of the fitted curve.

Row | SMILES | Potency | activation
1 | COc1ccccc1C(=O)Nc1cc(-c2nn3c(C)nnc3s2)ccc1C | inactive | 
2 | Cn1c(NCc2cccc(Br)c2)nc2ccccc21 | inactive | 
3 | C1CCC2(CC1)C1=C(CCCC1)Nc1nnnn12 | inconclusive [activator, single point] | 
4 | CCOC(=O)N1CCC(Nc2c(Nc3ccc(C)c(C)c3)c(=O)c2=O)CC1 | inactive | 
5 | CC(=O)c1ccc(N2CCN(S(=O)(=O)c3cccc(S(=O)(=O)N4CCOCC4)c3)CC2)cc1 | inconclusive [activator, partial curve] | 
6 | COc1cccc(-c2nnc(SCC(=O)N3CCCC3=O)n2-c2ccccc2)c1 | inconclusive [activator, partial curve] | 
7 | CCCCC[C@H](O)/C=C\[C@H]1[C@H](C/C=C\CCCC(=O)O)[C@@H](O)C[C@H]1O (tested in a mixture with another compound) | active: 12.6 µM | 
8 | COc1cccc(-n2nnnc2SCC(=O)N2CCCc3ccccc32)c1 | inconclusive [activator, single point] | 
9 | COc1ccc(NC2=C(C)C(=O)CC2)cc1 | inconclusive [activator, partial curve] | 
10 | CCC(O)OC(O)CC (stereo not given) | inactive | 
11 | O=C(CN(C(=O)CCC(=O)Nc1ccccn1)c1ccc2c(c1)OCCO2)NCCc1ccccc1 | inconclusive [activator, full curve, poor fit] | 
12 | CN(C(=O)c1cc2sccc2n1C)C1CCCCC1 | inconclusive [activator, partial curve] | 
13 | COc1ccccc1Nc1nc(-c2cccs2)cs1 | inactive | 
14 | CCCCOc1ccc(C(=O)OC(C)CN(C)C)cc1 (stereo not given) | inconclusive [activator, single point] | 
15 | COC(=O)c1ccccc1NC(=O)CN(c1ccccc1)S(=O)(=O)N(C)C | inconclusive [activator, single point] | 
16 | CCOC(=O)CCN1C(=O)[C@H]2[C@H]3[C@H](O)[C@H](O)C/C(=N/OC/C=C(\C)CCC=C(C)C)[C@H]3CC[C@@H]2C1=O |  | inactive: 0.682% [at 11.4 µM]
17 | O=C(CN(C(=O)c1cc2c(s1)CCC2)C1CCCC1)NCc1cccs1 | active: 31.6 µM | 
18 | Clc1cc2c(c(Cn3cnc4ccccc43)c1)OCOC2 | inconclusive [activator, full curve] | 
19 | C=CCSc1nc2c(c(=O)[nH]c(=O)n2C)n1Cc1ccc(C)cc1 | inactive | 
20 | O=C(c1cc(C(F)(F)F)cc(C(F)(F)F)c1)N1CCC2(CCN(Cc3ccccc3)CC2)CC1 | inactive | 
21 | Cc1nn(C)c(C)c1S(=O)(=O)N1CCCC(C(=O)NCC2COc3ccccc3O2)C1 (stereo not given) | inconclusive [activator, single point] | 
22 | Cc1noc(C)c1C(=O)OCC(=O)/C=C1\N(C)c2ccccc2C1(C)C | inconclusive [activator, single point] | 
23 | CCOC(=O)c1c(NC(C)=O)sc2c(O)c(CN3CCN(CC)CC3)ccc12 | inconclusive [activator, partial curve] | 

Row | SMILES | Potency | activation
24 | Cc1cc2oc(=O)c3c(c2cc1OC(=O)c1ccco1)CCCC3 | inconclusive [activator, partial curve] | 
25 | CCN(c1ccccc1)c1cc(NC)[n+](C)c(C)n1 | active: 31.6 µM | 
26 | CN1CCN(CCCN2c3ccccc3Sc3ccc(Cl)cc32)CC1 | inconclusive [activator, single point] | 
27 | Cc1ccc(C)n1-n1c(C)nc2sc3c(c2c1=O)CCCCC3 | inconclusive [activator, partial curve] | 
28 | O=C1[C@@H]2[C@@H](C(=O)N1c1ccc(OCc3ccccc3)cc1)[C@@H]1c3ccccc3[C@@H]2[n+]2ccccc21 |  | inactive: 4.9% [at 11.4 µM]
29 | CC=C(Cl)Cl | inconclusive [activator, single point] | 
30 | COc1ccc(CNc2ccnc(-c3ccc(N(C)C)cc3)n2)c(OC)c1 | inactive | 
31 | CC(=O)c1c(OC(=O)c2ccco2)c2ccccc2n1C | inconclusive [activator, partial curve] | 
32 | CCc1nc(SCC(=O)N2CCCC2)c2ccccc2n1 | inconclusive [activator, partial curve] | 
33 | O=C(Nc1ccc(-n2cnnn2)cc1)C1CCCN1C(=O)NC1CCCCC1 (stereo not given) | inconclusive [activator, single point] | 
34 | CCC(c1nnnn1CCc1ccccc1)N(Cc1ccco1)Cc1cc2cc(C)cc(C)c2[nH]c1=O (stereo not given) | active: 12.6 µM | 
35 | CC12CCC(C(=O)NCC3CCCO3)(OC1=O)C2(C)C (stereo not given) | inconclusive [activator, partial curve] | 
36 | CCC(c1nnnn1Cc1ccc(F)cc1)N1CCN(C2CCCCC2)CC1 (stereo not given) | active: 0.631 µM | 
37 | Cc1occc1-c1nnc(SCC(=O)Nc2ccccc2-c2ccccc2)n1C | inactive | 
38 | COc1ccc(Cn2nnnc2CN(Cc2cc3cccc(C)c3[nH]c2=O)C2CCCC2)cc1 | inconclusive [activator, partial curve] | 
39 | CN1/C(=C\C(=O)c2ccco2)C(C)(C)c2ccccc21 | active: 20 µM | 
40 | O=C(OCC(=O)N1CCN(C(=O)COC(=O)c2ccncc2)CC1)c1ccncc1 | inconclusive [activator, single point] | 
41 | Cc1cccn2c(=O)c3cc(C(=O)N4CCN(C(=O)c5ccco5)CC4)n(C)c3nc12 | inactive | 
42 | Cc1ccc(NS(=O)(=O)c2ccc(NC(=O)C3CCCO3)cc2)cc1 (stereo not given) | inconclusive [activator, partial curve] | 
43 | Cc1ccc2c(c1)c(C)c(C)n2CC(O)CN1CCCCC1C (stereo not given) | inconclusive [activator, single point] | 
44 | N#CC1=C(N)OC2=C(C(=O)CCC2)C1C1C=CCCC1 (stereo not given) | inconclusive [activator, single point] | 
45 | Cc1cc(C)n(-c2nnc(C)n2/N=C/c2cc(Br)ccc2OCc2ccccc2)n1 | active: 3.16 µM | 

Reference: PubChem BioAssay AID938 (National Center for Advancing Translational Sciences (NCATS), 2007)
